This data set can be described thus: Example 4: toxicity in whole animals, intraperitoneal injection in mice. The note with it: i.p. The protocol:
Another set of mice were treated similarly with the bis(bromomethyl)phenanthroline derivative; all died when given a dose of 60 mg/kg of body mass. […] These toxicity data were provided by The Developmental Therapeutics Program of the National Cancer Institute.

Regarding `BrCc1ccc2ccc3ccc(CBr)nc3c2n1` [2,9-bis(bromomethyl)-1,10-phenanthroline], for the setting “dose of 60 mg/kg of body mass”, the deaths entry was “all died”.

In the case of `ClCc1ccc2ccc3ccc(CCl)nc3c2n1` [2,9-bis(chloromethyl)-1,10-phenanthroline], where the note is “240 mg/kg of body mass in five consecutive days”, the “toxic effects / deaths” value is “displayed no toxic effects, i.e., none of the experimental animals died or displayed any deleterious effects”.
